Here are results for two compounds from patent US20110020460A1, “GPR 119 MODULATORS” (Pfizer Inc., priority 2009, published 2011).

In this experiment the target is T1, human GPR119 (Homo sapiens, UniProt Q8TDV5).
T1 construct: host or cells: HEK293-CRE-beta-lactamase
T1 sequence (Q8TDV5 1-335): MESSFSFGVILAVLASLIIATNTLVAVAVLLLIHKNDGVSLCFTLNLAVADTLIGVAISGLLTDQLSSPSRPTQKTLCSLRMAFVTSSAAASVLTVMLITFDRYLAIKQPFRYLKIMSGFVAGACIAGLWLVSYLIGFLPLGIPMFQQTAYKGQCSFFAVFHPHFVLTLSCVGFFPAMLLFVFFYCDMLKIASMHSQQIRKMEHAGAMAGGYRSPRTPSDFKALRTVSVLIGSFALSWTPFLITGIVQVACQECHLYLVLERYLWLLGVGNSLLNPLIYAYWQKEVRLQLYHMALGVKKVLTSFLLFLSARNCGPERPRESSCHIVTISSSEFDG
In words: cAMP HTRF functional assay (hGPR119 HEK-CRE beta-lactamase cells). Format: cell-based. The note with it: one value per run. As to the method:
GPR119 agonist activity was also determined with a cell-based assay utilizing an HTRF (Homogeneous Time-Resolved Fluorescence) cAMP detection kit (cAMP dynamic 2 Assay Kit; Cis Bio cat #62AM4PEC) that measures cAMP levels in the cell. The method is a competitive immunoassay between native cAMP produced by the cells and the cAMP labeled with the dye d2. The tracer binding is visualized by a Mab anti-cAMP labeled with Cryptate. The specific signal (i.e. energy transfer) is inversely proportional to the concentration of cAMP in either standard or sample.
Following 30 minutes incubation at room temperature, 5 microL of labeled d2 cAMP and 5 microL of anti-cAMP antibody (both diluted 1:20 in cell lysis buffer; as described in the manufacturers assay protocol) were added to each well of the assay plate. […] Raw data were converted to nM cAMP by interpolation from a cAMP standard curve (as described in the manufacturer's assay protocol) and EC50 determinations were made from an agonist-response curves analyzed with a curve fitting program using a 4-parameter logistic dose response equation.
(In general: Time-resolved FRET reads energy transfer from a long-lived donor to a nearby acceptor.)

A number of entries come with more than one value. This is not the full list of results. The source may hold further records. For some assays here: The records of an entry appear to be repeats on other runs, samples or individuals. For some assays here: Results that share an entry seem to repeat one measurement; a mean can stand among them. Some results are limits rather than exact numbers.

The term EC50 denotes the concentration that produces a half-maximal response. High values mean a need for much substance, low ones an effect from little substance. As to `CC(C)OC(=O)N1CCC(n2ncc(COc3ccc(-n4cnnn4)cc3F)c2C#N)CC1` [Example 3, Isopropyl 4-(5-cyano-4-{[2-fluoro-4-(1H-tetrazol-1-yl)phenoxy]-methyl}-1H-pyrazol-1-yl)piperidine-1-carboxylate], the EC50 was 13, 214, 239, 152, 11 nM [lines of one column]. As to `CC(C)OC(=O)N1CCC(n2ncc(CC(C)c3ccc(S(C)(=O)=O)cc3F)c2C#N)CC1` (centres unmarked) [Example 29, Isopropyl 4-(5-cyano-4-{2-[2-fluoro-4-(methylsulfonyl)phenyl]propyl}-1H-pyrazol-1-yl)piperidine-1-carboxylate], the EC50 is > 10 µM and 648 nM [lines of one column].
